Here are results for 41 compounds from ChEMBL document CHEMBL4888484, “Replenishing the malaria drug discovery pipeline: Screening and hit evaluation of the MMV Hit Generation Library 1 (HGL1) against asexual blood stage Plasmodium falciparum ,using a nano luciferase reporter read-out” (2022).

The structures appear in SMILES notation. The campaign covered roughly 150,000 compounds. About 540 (0.36%) showed an effect of 50% or more. The list shows a part of the results.

In this assay the test system is Plasmodium falciparum. Kind of assay: Primary screen in NF54 nanoGlo assay, in single point, at 2uM, 72h; a lower Z score goes with more inhibition. The note with it: timepoint 72 hour. It counts as functional, Erythrocyte.
Turning to `O=C(c1csc(C(F)(F)F)n1)N1CC(O)CC1c1ccccc1` (configuration not stated), the “% Inhibition” value is -5% and the Z score is given as 0.74.

With `Cc1nc2cc(OCc3cc(C(=O)N(C)[C@H]4CCOC4)no3)ccc2s1`, the “% Inhibition” value is listed as -22% and the Z score stood at 2.35.

With `CCc1ccccc1NC(=O)c1ccc(-c2c(-c3ccc(F)cc3)ncn2C2CCCCC2)o1`, the “% Inhibition” value is 6% and the Z score is reported as -0.89.

For `Cc1ccc(Cl)cc1Nc1nc(Nc2cc(Cl)ccc2C)nc(N2CCN(C)CC2)n1`, the “% Inhibition” value was determined as 2% and the Z score was -0.35.

As to `COc1cc2c(cc1CN1CC[C@H](Cc3ccc(CO)cc3)C1)OCCCO2`, the “% Inhibition” value is listed as -18% and the Z score turned out to be 1.74.

For the compound `O=C(NCc1ccc(OCc2cccnc2)cc1)c1nn(-c2ccccc2)c(=O)c2ccccc12`, the “% Inhibition” value came to 4% and the Z score is reported as -0.48.

Take `O=C(CCOCC1CCCO1)Nc1ccnn1C1CCN(Cc2ccccc2)C1` (configuration not stated): the “% Inhibition” value is reported as -11% and the Z score is 1.42.

In the case of `COc1cc(C(=O)NCC[C@H]2CCOC2)ccn1`, the “% Inhibition” value is reported as -2% and the Z score is 0.22.

`O=C(NC1CCCC2CN(Cc3ccccc3)CC21)C1(O)CCC1` (configuration not stated): the “% Inhibition” value was -6% and the Z score was 0.48.

Consider `Cn1cc(CN2CCCN(C(=O)Nc3nnc(C(C)(C)c4ccccc4)s3)CC2)cn1`, for which the “% Inhibition” value is reported as -8% and the Z score was determined as 1.71.

As for `CC(C)C(=O)N[C@H]1CC12CCN(C(=O)c1cccn1C)CC2`, the “% Inhibition” value was -17% and the Z score amounted to 3.09.

`O=C(Nc1ccc2c(c1)OCO2)c1ccc(=O)[nH]c1`: the “% Inhibition” value amounted to 2% and the Z score is -0.13.

For the compound `CNS(=O)(=O)c1ccc(-c2ccc3c(c2)CCOC3)s1`, the “% Inhibition” value is listed as -4% and the Z score is 0.69.

In the case of `Cc1ccn2cc(C(=O)N3CCCC(N4C(C)CCC4C)C3)nc2c1` (configuration not stated), the “% Inhibition” value is -10% and the Z score was 1.21.

`COc1ccc(CC(=N)Nc2cc3cc(OC)c(OC)cc3c(Cc3ccc(OC)c(OC)c3)n2)cc1OC`: the “% Inhibition” value was 85% and the Z score is -9.78.

In the case of `CC1(C)CO[C@@H](CS(=O)(=O)NCCc2cn[nH]c2)C1`, the “% Inhibition” value is given as -11% and the Z score came to 1.2.

As for `Cc1cc(F)c(C(=O)N2CC[C@H](N3CC=CC3)C2)cc1F`, the “% Inhibition” value came to 30% and the Z score was -3.38.

On to `COc1cc(OC)cc(C(=O)N2C[C@H](COc3ccncc3)C3(CCOCC3)C2)c1`, for which the “% Inhibition” value is reported as -13% and the Z score was 1.67.

Consider `COc1cc(C(=O)NC[C@H]2CCCN3CCCC[C@@H]23)cc(OC)c1OC`, for which the “% Inhibition” value is 0% and the Z score was -0.01.

For the compound `CCN(C(=O)[C@H]1CC1(C)C)c1ccccc1S(=O)(=O)CC`, the “% Inhibition” value was -9% and the Z score was determined as 1.29.

As to `CCS(=O)(=O)N1CCN(CC(=O)Nc2nn(Cc3ccccc3)cc2Cl)CC1`, the “% Inhibition” value is -10% and the Z score is 1.22.

Regarding `C[C@H](NC(=O)N1CC(c2ccncc2)C1)c1cnn(C)c1`, the “% Inhibition” value was 6% and the Z score was -1.13.

As for `CCCCc1nc(C)cc(NCCNC(=O)[C@@H]2CCCCO2)n1`, the “% Inhibition” value worked out at 1% and the Z score is listed as -0.16.

For the compound `Cc1ccoc1C(=O)NC1CCN(C(C(=O)O)c2ccccc2)C1=O` (configuration not stated), the “% Inhibition” value was -4% and the Z score is reported as 0.35.

Consider `O=C(O)[C@H]1CCN(C(=O)NCCc2cccc(-c3ccccc3)c2)C1`, for which the “% Inhibition” value is on record as -14% and the Z score turned out to be 1.3.

For `CC(=O)N1CCC[C@H]1C(=O)NC(C)(C)c1nc2ccccc2n1C`, the “% Inhibition” value is -11% and the Z score turned out to be 1.33.

Regarding `CCOC(=O)N1CCc2c(nc(-c3ccc(F)cc3)n(CC(=O)Nc3cc(Cl)ccc3C)c2=O)C1`, the “% Inhibition” value is listed as 33% and the Z score is -3.77.

Regarding `COc1ccc2c(ccn2CC(=O)N2CCC(NC(=O)OC(C)(C)C)CC2C)c1` (configuration not stated), the “% Inhibition” value is on record as -6% and the Z score was 0.83.

As to `COc1ccc(-c2nc(NC3CCCCC3)nc3nn(Cc4ccccc4)c(N)c23)c(F)c1`, the “% Inhibition” value was -17% and the Z score came out at 1.98.

`C[C@@H](CCNc1nc(-c2ccncc2)nc2c1CCNCC2)n1ccnc1`: the “% Inhibition” value came to 13% and the Z score is -1.64.

For the compound `CC1=C(CN2C[C@@H]3NCCO[C@H]3C2)C(C)(C)CCC1`, the “% Inhibition” value is listed as 3% and the Z score is -0.53.

`C[C@@H]1CC=CC[C@H]1C(=O)N1CC(C2CCC2)C1`: the “% Inhibition” value was -9% and the Z score is 1.41.

Consider `CCc1ccc(S(=O)(=O)N2CCC3(CC2)N=C(c2ccc(C)c(C)c2)C(=O)N3)cc1`, for which the “% Inhibition” value was -6% and the Z score came out at 0.8.

Regarding `O=C(CN1CCCC1)Nc1cccc(-c2nc3ccccc3nc2O)c1`, the “% Inhibition” value was -8% and the Z score came out at 1.06.

Consider `COc1cccc(-c2nc(Cn3c(=O)c4c(C)cc(C)nc4n(-c4ccccc4)c3=O)c(C)o2)c1OC`, for which the “% Inhibition” value is listed as -4% and the Z score is reported as 0.53.

In the case of `O=C(CC(F)(F)F)NCC(=O)c1cccc2ccccc12`, the “% Inhibition” value is on record as -8% and the Z score was 1.27.

Regarding `CC[C@H](C)NC(=O)CCc1n[nH]c(-c2ccc(OCC(C)C)cc2)nc1=O`, the “% Inhibition” value is on record as -4% and the Z score came out at 0.55.

In the case of `CCc1ccc(CNc2cccnc2OC(C)C)o1`, the “% Inhibition” value was -3% and the Z score came out at 0.44.

With `Cc1cccc(N2CCN(c3ccc(NS(=O)(=O)c4cccc(C)c4)cc3C(=O)O)C[C@@H]2C)c1`, the “% Inhibition” value is 0% and the Z score is given as -0.02.

Regarding `C[C@H]1C(=O)NCCN1C(=O)OC(C)(C)C`, the “% Inhibition” value is 4% and the Z score is reported as -0.85.

On to `CCOC(=O)N1CC[C@H](N2CCn3nc(CNC(=O)C4CCC4)cc3C2)C1`, for which the “% Inhibition” value is -2% and the Z score is 0.41.

One may read the % Inhibition as the change of the read-out against control, counted positive when it falls.
